# Screen size: about 48,000 compounds; about 450 (0.94%) were called active. Roughly 19% stayed inconclusive and do not appear here. The call rests on the fitted dose curve; in most records, active means well fitted inhibition curve with a large enough effect; inconclusive means small, poorly fitted or top-dose-only effect; inactive means no such curve, though single readings can be large or run the other way. This is one part of the list.
# Assay: Primary qHTS for Identification of Small Molecule Inhibitors of Huntingtin Promoter Activity; further: nearly all actives have a fitted effect of over 50% in size
# Settings: HEK293 HTT promoter firefly luciferase reporter (activity 0% = vehicle and -100% = no light), 24 h; series mostly up to 57.5 µM; activity change, negative = inhibition: at the top concentration
# Summary of the method: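 Quantitative HTS used concentration series of up to 57.5 uM final on HEK293 luciferase reporter cells, 24 h at 37 degrees C. Readout was Dual-Glo firefly luminescence.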
row,SMILES,"activity change, negative = inhibition"
1,Cc1ccc(-n2c(SCc3nc(-c4ccccc4C)no3)nnc2-c2ccncc2)cc1C,inactive: -27.8%
2,Cc1ccc(-n2ncc(C(=O)N3CCc4ccccc4C3)c2C2CCN(C(=O)OC(C)(C)C)CC2)cc1C,inactive: -4.14%
3,COc1ccccc1-c1noc(-c2ccc(NCCc3ccccc3)c([N+](=O)[O-])c2)n1,inactive: 3.07%
4,CCn1cc(C(=O)NCCc2ccc(OC)c(OC)c2)c(=O)c2cc(S(=O)(=O)N3CCc4ccccc4C3)ccc21,inactive: 4.61%
5,COc1cccc(CNC(=O)CSc2ncc(S(=O)(=O)c3ccc(C)c(Cl)c3)c(=O)[nH]2)c1,inactive: -15%
6,COc1ccc(-c2nc(CN3CCC(C(=O)NCCN(CC(C)C)CC(C)C)CC3)c(C)o2)cc1OC,inactive: -19.2%
7,CC(C)(C)C(=O)OCc1cc(=O)n2nc(C3CCCCC3)sc2n1,inactive: 10.2%
8,COC(=O)c1ccccc1NC(=O)CN1C(=O)COc2ccccc21,inactive: -0.696%
9,Cc1ncc(CO)c2c1Oc1nc(-c3ccccc3F)nc(SCC(=O)N3CCCCC3)c1C2,inactive: -6.93%
10,COc1ccc(NC(=O)CSc2nc3c(c(=O)[nH]2)CN(Cc2ccccc2)CC3)cc1Cl,inactive: -22.8%
11,CCc1ccc(NC(=O)Cn2c(=O)n(Cc3ccccc3)c(=O)c3oc4ccccc4c32)cc1,inactive: -2.41%
12,COc1cccc2cc(-c3nc(Cl)c4c5c(sc4n3)CC(C)CC5)c(=O)oc12 (configuration not stated),inactive: -10.3%
13,Cc1ccc(S(=O)(=O)c2cn(C)c3cc(N4CCCC4)c(F)cc3c2=O)c(C)c1,inactive: -16.4%
14,CCOc1cc(C(=O)Nc2c(NC)c3ccccc3oc2=O)cc(OCC)c1OCC,inactive: 19.8%
15,CCc1ccc(NC(=O)c2cnn(-c3c(C)cccc3C)c2C2CCNCC2)cc1,inactive: 0.0757%
16,O=C1CN(C(=O)c2ccccc2)C(c2ccc(F)cc2)c2cc(Br)ccc2N1 (configuration not stated),inactive: -26.9%
17,Cc1ccc(C)c(NC(=O)CSc2nncn3c2cc2sccc23)c1,inactive: 4.14%
18,CCOCCCNC(=O)c1c(NC(=O)c2cc(=O)c3cc(C)c(C)cc3o2)sc2c1CCC2,inactive: -14.8%
19,CCOc1ccc(N2CC(c3nc4ccccc4n3CCC3CCCCC3)CC2=O)cc1 (configuration not stated),inactive: -16.3%
20,COc1ccc(CN2C(=O)N(c3ccc(F)cc3)C(=O)C2CC(=O)Nc2ccccc2)cc1 (configuration not stated),inactive: -25.8%
21,CCCNC(=O)C1CCN(c2cc(C)nc3c(-c4ccc(OC)c(OC)c4)c(C)nn23)CC1,inactive: 21%
22,Cc1ccc(CCNc2nc3ccccc3c3nc(-c4ccccc4)nn23)cc1,inactive: 9.88%
23,O=C1N=C(O)CN1/N=C/c1ccc(-c2ccc([N+](=O)[O-])cc2)o1,inactive: 0.905%
24,Cc1oc(-c2ccc(Cl)cc2)nc1CSc1nnc(C)n2c1cc1sccc12,inactive: -0.504%

row,SMILES,"activity change, negative = inhibition"
1,O=C(NCCc1c[nH]c2ccccc12)Nc1ccccc1C(F)(F)F,inactive: -14.5%
2,COC(=O)c1cc(NC(=O)Cn2ncc3c2-c2ccccc2OC3)cc(C(=O)OC)c1,inactive: -17.8%
3,COc1ccc(-c2noc(-c3ccc(NC4CCCCC4)c([N+](=O)[O-])c3)n2)cc1OC,inactive: -8.09%
4,CCCn1c2ccccc2c2cnn(CC(=O)N(CCCOC(C)C)Cc3ccco3)c(=O)c21,inactive: -24.4%
5,COc1cc(C(=O)Nc2ccc(OCc3cc(=O)n4ccc(C)cc4n3)cc2)cc(OC)c1OC,inactive: 4.47%
6,Cc1ccc(-n2c(=O)c3c(C)c(C)sc3n(CC(=O)c3ccc(Cl)cc3)c2=O)cc1C,inactive: -21.3%
7,N#Cc1ccccc1CSc1nnc(-c2ccccc2)o1,inactive: 33.4%
8,O=C(Cn1c(=O)n(Cc2ccc(F)cc2)c(=O)c2sc3ccccc3c21)NCc1ccccc1Cl,inactive: -8.29%
9,Cc1ccn2c(Nc3ccc4c(c3)OCO4)c(-c3ccco3)nc2c1,inactive: 54.1%
10,Cc1cccc(N2CCN(S(=O)(=O)c3c(C)[nH]c(=O)[nH]c3=O)CC2)c1C,inactive: -16.6%
11,CCc1cccc(NC(=O)c2nc(-c3ccncc3)no2)c1,inactive: -11.7%
12,COc1ccc(C2=NN(CC(=O)NCc3ccccc3Cl)C(=O)CC2)cc1,inactive: 5.84%
13,Cc1ccc(CCNC(=O)c2c(C)oc3ncnc(N4CCOCC4)c23)cc1,inactive: -10.1%
14,COc1cccc(CNC(=O)N2CCC(CN3CCC(C)CC3)CC2)c1,inactive: -2.35%
15,COc1cc2cc(CNc3ccc(C)cc3)c(=O)n(CC(=O)Nc3ccc(C(C)C)cc3)c2cc1OC,inactive: -16.4%
16,COc1ccc(NC(=O)CSc2nc(-c3ccc(OC)cc3)[nH]c2-c2ccc(F)cc2)cc1,inactive: -29.8%
17,COc1ccccc1NC(=O)c1ccccc1NC(=O)c1ccccc1,inactive: -25.8%
18,CN(C)c1ccc(CNC(=O)CCC(=O)N2Cc3ccccc3Oc3ncccc32)cc1,inactive: -6.1%
19,Cc1ccc(CN(C(=O)COc2ccc(C(C)(C)C)cc2)C2CCS(=O)(=O)C2)o1 (configuration not stated),inactive: -23.9%
20,COc1ccc(-c2c3c(nc4sc(C(=O)Nc5ccc(Cl)cc5)c(N)c24)CC(C)(C)CC3=O)cc1,inactive: -18.8%
21,COCCc1nn2c(=O)cc(COC(=O)c3cccs3)nc2s1,inactive: 47.3%
22,Cn1nnc2c(N3CCCCC3)ncnc21,inactive: 10%
23,CCn1ccc2cc(S(=O)(=O)N3CCC(C(=O)NCCc4ccc(SC)cc4)CC3)ccc21,inactive: 0%

# Source: PubChem BioAssay AID1508623 (National Center for Advancing Translational Sciences (NCATS), 2021)
